This passage reports self-cleavage results from the RNAGym collection of RNA variant scans (doi:10.7554/elife.90254).

Read counts are not given, so values of variants with three or more changes are uncertain.

First the molecules themselves.
B1: LINE1-mini (parent)
chain: GGCAGAGCUCAACACAGCGUGGCAAAGUGGCUGUGGCUAGACUGCC

The variants in the data set derive from B1. The data set is described as follows: self-cleavage, relative activity (ratio to wild type); higher = more cleavage; in vitro, sequencing; the parent is a self-cleaving ribozyme.
GGCAGAGCCGAACACCGCGUGGCAAAGUGGCUGUGGCUAGCCUGCC [U9C C10G A16C A41C]: the self-cleavage was found to be 0.02. The value for GGCAGAGCCCAACACAACGUGGCAAAGUGGCUGUGGCUAGACUGCG [U9C G17A C46G] was 0.01; that for GGCAGAGCCCAACACAGGGUGGCAAAGUGGCUGUGGCUGGACUGCC [U9C C18G A39G] was 0.03. As to GGCAGAGCCCAACACAGAGUAGCAAAGUGGCUCUUGCUAGACUGCC [U9C C18A G21A G33C G35U], the self-cleavage is 0.03.

In the case of GGCAGAGCCCAACACAACGUGGCAAAGCGGCUGUGGCUAGACUGCC [U9C G17A U28C], the self-cleavage amounted to 0.02.

As to GGCAGAGCCCAAACCAGCGUGGAAAAGUGGCUGUGGCUAGAGUGCC [U9C C13A A14C C23A C42G], the self-cleavage stood at 0. Under GGCAGAGCCCAACACAGCGUCGGAAUGUGGCUGUGGCUAGACUGCC [U9C G21C C23G A26U] stands 0.02; under GGCAGAGCCCAACACAGCGUGGGAGAGUGGCUGUGGCUAGACUGCC [U9C C23G A25G], 0.01; under GGCAGAGCCCAACACAUCGUGGCAUAGUGGCUGUGGCUAAACUGCC [U9C G17U A25U G40A], 0.03. As to GGCAGAGCCCAACACAGAGUGGCAAAGUGACAGUGGCUAGACUGCC [U9C C18A G30A U32A], the self-cleavage worked out at 0.02. Under GGCAGAGCCCAACACAGCGUGUAAAAGUGGCUGUGGCUAGAAUGCC [U9C G22U C23A C42A] stands 0.01; under GGCAGAGCCCAAGACAGUGUGGCAAAGUGGCUGUGGCUAGACUGCC [U9C C13G C18U], 0.03; under GGCAGAGCCCAACACAGCGUGUGUAAGUGGCUGUUGCUAGACUGCC [U9C G22U C23G A24U G35U], 0.01. The value for GGCAGAGCCCAAGAGAGCGUGGCACAGGGGCUGUGGCUAGACUGCC [U9C C13G C15G A25C U28G] was 0.01; that for GGCAGAGCCCAACACAGCGUGGCAAAGUGGCUGUGGAAAAACUGCC [U9C C37A U38A G40A] was 0.01. The value for GGCAGAGCCCAACACAGCGUGGUAAAAGGGCUGUGGCUAGACUGGU [U9C C23U G27A U28G C45G C46U] was 0.01. GGCAGAGCCCAACACAGCGUGGCAAAGUGGAAGUGGCUAGACUGCC [U9C C31A U32A]: the self-cleavage was determined as 0.06. The value for GGCAGAGCCCAACACAGGAUGGCAAAGUGGCUGCGGCUAGACUGCC [U9C C18G G19A U34C] was 0.02; that for GGCAGAGCCCAACACAGCGUGCCAAAGUGGCUGUGGAUAGUCUGCC [U9C G22C C37A A41U] was 0.08; that for GGCAGAGCCCAACACAGCUUGGCAAAGUGGCCGUGGCUAGACUGCC [U9C G19U U32C] was 0. The value for GGCAGAGCCCAACACAGCGUGGCAAAGUGGCUGUGGCUAGAGUGCG [U9C C42G C46G] was 0.01. Consider GGCAGAGCCCAACACAGCACGGCAAAGUGGCUGUGCCUAGACUGCC [U9C G19A U20C G36C], for which the self-cleavage worked out at 0.01. Take GGCAGAGCCCAACACAGCCUGGCAAAGUGGCUGUGGCUGGACUGCC [U9C G19C A39G]: the self-cleavage was 0. The value for GGCAGAGCCCAACACAGCGUGGGAAAGUGCCUGUGGCUAGACUGCC [U9C C23G G30C] was 0.05. Under GGCAGAGCCCAACACAGCGUGACUAAGUGGCUGUGGCUAGACUGCC [U9C G22A A24U] stands 0.02; under GGCAGAGCCUAACACAGCGUGGAAAAGUGGCUGUGGCUAGAGUGCC [U9C C10U C23A C42G], 0.01; under GGCAGAGCCCAACACAGAGUGGCAAAGUGGCUGUGGCUAGAUUGCC [U9C C18A C42U], 0.06. For the variant GGCAGAGCCCAACACAGCUUGGCAAAGUGGCUGAGGCUAGACUGCC [U9C G19U U34A], the self-cleavage worked out at 0.03. The value for GGCAGAGCCCAACACAGCGUAGGAAACUGGCUGUGGCUAGACUUCU [U9C G21A C23G G27C G44U C46U] was 0.01; that for GGCAGAGCCCAAAACAGCGUGGCAAAGUGGCUGUUGCUAGACUGCC [U9C C13A G35U] was 0.03.

For GGCAGAGCCAAACACACCGUGGCAAAGUGGCAGUGGCUAGACUGCC [U9C C10A G17C U32A], the self-cleavage came out at 0.01. The value for GGCAGAGCCCAACACAGCGUGGAAAGGUGGCUGUUGCUAGACUGCC [U9C C23A A26G G35U] was 0.01; that for GGCAGAGCCAAACACAGCGUGGCAAAGUGGCUGUGACUAGACGGCC [U9C C10A G36A U43G] was 0.02; that for GGCAGAGCCCAACACAGCGUGUCAAAGUGGCUGUGGCUUGACUGCC [U9C G22U A39U] was 0.01.

In the case of GGCAGAGCCGAACAUAGCGUGGCAAAGUGGCUGUGGCUAGACUGCU [U9C C10G C15U C46U], the self-cleavage turned out to be 0.02. With GGCAGAGCCCAACACAGCCUGGCAUAGUGGCUGUGGCUAGAGUGCC [U9C G19C A25U C42G], the self-cleavage came out at 0. Under GGCAGAGCCAAACACAGCGUAGCAAAGUGGCUGUGGCUAGACUGCC [U9C C10A G21A] stands 0.02; under GGCAGAGCCCAACAAAGCGUGGCAAAGUCGCUGUGGCUAGACUGCC [U9C C15A G29C], 0.02.

On to GGCAGAGCCCAAGACAGCGUGGCAAAGUGGCUGUGGCUAGACUUCC [U9C C13G G44U], for which the self-cleavage is 0. With GGCAGAGCCGAACACAGCAUGGCAAAGUGGCUGUGGCUAGCCGGCC [U9C C10G G19A A41C U43G], the self-cleavage was 0.01. The value for GGCAGAGCCGAACACAGCCUGGUAAAGUGGCUGUGGCCAGACUGCC [U9C C10G G19C C23U U38C] was 0.01; that for GGCAGAGCCCAACAGAGCGUGGCAACGUGGCUGUGGCUAGACUGCC [U9C C15G A26C] was 0.02; that for GGCAGAGCCCAACACAUCAUGGGAAAGUAGCUGUGGCUAGACUGCC [U9C G17U G19A C23G G29A] was 0.05.

As for GGCAGAGCCCAACAUAGCGUGGCAAAGUGGCUGUGGCUCGACUGCC [U9C C15U A39C], the self-cleavage was determined as 0.06. Take GGCAGAGCCCAACAAAGCGUGGCAAAGUGGCUGUGGCUAGACUGCA [U9C C15A C46A]: the self-cleavage came to 0.02. Under GGCAGAGCCAAACACAGCGUGGCAAAGUGGCUCUGGCUAGACUGCC [U9C C10A G33C] stands 0.04; under GGCAGAGCCCAACACAGCGUAGGAAAGUGGCUGUGGCUAGACUGCC [U9C G21A C23G], 0.03; under GGCAGAGCCCAACACAGCGUGGAAGAGUGGUUGUGGCUCGACUGCC [U9C C23A A25G C31U A39C], 0.01. As to GGCAGAGCCCAACACAGCUCGGCAAAGUAGCUGUGGCUAAACUGCC [U9C G19U U20C G29A G40A], the self-cleavage was determined as 0.03.

For the variant GGCAGAGCCCAACACAGCGUAGCAAAGAGGAUGUGGCUAGACUGCC [U9C G21A U28A C31A], the self-cleavage turned out to be 0. The value for GGCAGAGCCUCACACAGCGUGGCAAUUUGGCUGUGGCUAGACUGCC [U9C C10U A11C A26U G27U] was 0.02; that for GGCAGAGCCCAACAUAGCGUGGUAAACUGGCUGUGGCUAGACUGCC [U9C C15U C23U G27C] was 0; that for GGCAGAGCCCAACACAUCGUGGCAAAGGGGCUGAGGCUAGACUGCC [U9C G17U U28G U34A] was 0.02. Regarding GGCAGAGCCAAACACAGCGUGGCAAAGUGGCUGUUUCUAGACUGCC [U9C C10A G35U G36U], the self-cleavage is 0.01.

For GGCAGAGCCCAAUACAGGGUGGCAAAGUGGCUGUUGCUAGACAGCC [U9C C13U C18G G35U U43A], the self-cleavage was determined as 0.03. For GGCAGAGCCCAACACAGCAUGGCAAAGUGGCUGUGCCUAGAAUGCC [U9C G19A G36C C42A], the self-cleavage was found to be 0.
